Legend:
CDK2/Cyclin E = CDK2/Cyclin E (Homo sapiens, UniProt P24941)
CDK2/Cyclin A = CDK2/Cyclin A (Homo sapiens, UniProt P24941)

CC(C)N1CCN(c2ccc(Nc3ncc4cc5n(c4n3)C3(CCCCC3)CNC5=O)nc2)CC1.Cl.Cl [G1T38, 2′-((5-(4-isopropylpiperazin-1-yl)pyridin-2-yl)amino)-7′, 8′dihydro-6′Hspiro[cyclohexane1,9′ pyrazino[1′,2′:1,5]pyrrolo[2,3-d]pyrimidin]-6′-one di-hydrochloride]
selectivity for CDK4/ cyclin D1 than CDK2/cyclin E (CDK2/Cyclin E): > 1000 fold
selectivity for CDK4/ cyclin D1 than CDK2/cyclin A (CDK2/Cyclin A): > 1000 fold

From PMC5522071, “Preclinical development of G1T38: A novel, potent and selective inhibitor of cyclin dependent kinases 4/6 for use as an oral antineoplastic in patients with CDK4/6 sensitive tumors” (Oncotarget, 2017)
